Assay results published in patent publication US10273233B2, “Inhibitors of influenza viruses replication” (Vertex Pharmaceuticals Incorporated, priority 2015, dated 2019).

Legend:
[1] = Excerpt: For the HCl salt, a 30% PEG300/0.5% MC vehicle was used to prepare the suspension.
Remark: listed apart in the source

SMILES | physical form stability in FaSSGF [1] | physical form stability in FaSSIF [1] | chemical stability in solution (5 days, 0.15 mg/ml) | chemical stability in suspension (5 days, 2 mg/ml) | change in % area (suspension 2 mg/ml at 40° C. for 5 days, pH 3, no new impurities) [% area] | lower concentration levels compared to Hydrate 3 of Compound (1) ([1]; FaSSGF) [fold] | physical stability in suspension vehicle [1] | increase in concentrations compared to Hydrate 3 of Compound (1) ([1]; FaSSGF) [fold]
CC(C)(C)[C@@H](CC(=O)O)Nc1nc(-c2c[nH]c3ncc(F)cc23)ncc1F [Hydrate 3 of Compound (1)] | remained physically stable | remained physically stable throughout the in vitro dissolution study | chemically stable over a pH range of 3 to 9 | chemically stable over a pH range of 4 to 9 | 0.05 | – | – | –
CC(C)(C)[C@@H](CC(=O)O)Nc1nc(-c2c[nH]c3ncc(F)cc23)ncc1F [H2SO4 Salt] | remained physically stable | readily converted to Hydrate 2 of Compound (1) | – | – | – | 10 | – | –
CC(C)(C)[C@@H](CC(=O)O)Nc1nc(-c2c[nH]c3ncc(F)cc23)ncc1F [HCl Salt] | converted to an amorphous material | readily converted to Hydrate 2 of Compound (1) | – | – | – | – | physically unstable | 8

Counter-ions that a name gives are not always drawn.
